According to publication PMC9975351:

Substrate: Cc1ccc(N)cc1C(=O)N[C@H](C)c1cccc2ccccc12
Test: not read
Conditions: recombinant CYP3A4, 10 min, 95% CI in parentheses, pH 7.4, 37.0 °C

B1: CYP3A4 (Homo sapiens) (protein)
chain: MALIPDLAMETWLLLAVSLVLLYLYGTHSHGLFKKLGIPGPTPLPFLGNILSYHKGFCMFDMECHKKYGKVWGFYDGQQPVLAITDPDMIKTVLVKECYSVFTNRRPFGPVGFMKSAISIAEDEEWKRLRSLLSPTFTSGKLKEMVPIIAQYGDVLVRNLRREAETGKPVTLKDVFGAYSMDVITSTSFGVNIDSLNNPQDPFVENTKKLLRFDFLDPFFLSITVFPFLIPILEVLNICVFPREVTNFLRKSVKRMKESRLEDTQKHRVDFLQLMIDSQNSKETESHKALSDLELVAQSIIFIFAGYETTSSVLSFIMYELATHPDVQQKLQEEIDAVLPNKAPPTYDTVLQMEYLDMVVNETLRLFPIAMRLERVCKKDVEINGMFIPKGVVVMIPSYALHRDPKYWTEPEKFLPERFSKKNKDNIDPYIYTPFGSGPRNCIGMRFALMNMKLALIRVLQNFSFKPCKETQIPLKLSLGGLLQPEKPVVLKVESRDGTVSGA
other: M1 formation
  Km: 18.2 (14.8–22.7) µM
other: M3 formation
  Km: 14.8 (12.3–18.0) µM
